Assay results published in PubChem BioAssay AID1347120 (National Center for Advancing Translational Sciences (NCATS), 2019).
The whole screen tested about 390,000 compounds, of which about 930 (0.24%) were called active. This list was built around the results that the source calls inconclusive (neither active nor inactive); the mix of calls is not that of the screen. Calls come from the whole dose curve; as a rule, active = well fitted activation curve with a large enough effect; inconclusive = small, poorly fitted or top-dose-only effect; inactive = no such curve, though single readings can be large or run the other way. Where the call is inconclusive, the potency comes from a doubtful curve fit.

Test: qHTS for Suppressors of FUS Proteinopathy: Primary screen using FUS-linked yeast assay; note: nearly all actives have a fitted effect of over 55% in size;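 for growth rescue (activation): plate controls were DMSO vehicle for no effect and reference control for full effect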
Settings: S. cerevisiae FUS-expressing, OD600, 24 h; Potency: growth rescue; growth rescue (activation): at 76.6 µM (top of the series)
Outline: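 S. cerevisiae expressing FUS from galactose induction served as the toxicity model. Growth after 24hr at 30C, read as absorbance at 600 nm, indicates suppression of toxicity; compounds dosed at several concentrations.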
Potency is the fitted concentration of half-maximal effect; tags give direction and shape of the fitted curve.

Structure (SMILES)	growth rescue (activation)	Potency
CCn1c(=O)c2c3c(sc2n2cnnc12)CCC3	inconclusive: 31.1% [activator]	–
C=CC[C@@H](CC(=O)N(CCO)Cc1ccccc1)C(=O)N[C@@H](COC(=O)[C@@H](CC=C)CC(=O)OC(C)(C)C)Cc1c[nH]c2ccccc12	–	inconclusive: 11.2 µM [activator, partial curve, poor fit]
COc1cccc(NC(=O)CSc2nnc(Cc3ccc(C)cc3)c(=O)n2N)c1	–	inconclusive: 28.2 µM [activator, single point]
CC(OCc1ccccc1)C(NC(=O)OC(C)(C)C)C(=O)NCC1CCCO1 (stereo unspecified)	inconclusive: 70.6% [activator]	–
Cc1nc([N+](=O)[O-])c(NCCO)n1Cc1ccccc1	inactive: 4.65%	–
CC(C)(C)C1CCc2c(sc(NC(=O)c3cc4ccccc4c(=O)o3)c2C(N)=O)C1 (stereo unspecified)	inactive: 16.2%	–
O=C(Nc1ccc2ccccc2c1)C(c1ccc(C(F)(F)F)cc1)n1c(=O)c(-c2cc3ccccc3[nH]2)nc2ccccc21 (stereo unspecified)	inactive: 34.9%	–
Cc1ccc(C)c(NC(=O)CN(C)S(=O)(=O)c2cccc3nsnc23)c1	inactive: -2.82%	–
COc1ccccc1NS(=O)(=O)c1ccc(C)c(C(=O)N2CCCC2)c1	–	inconclusive: 50.1 µM [activator, single point]
CC1=C(C(=O)OCc2ccccc2)C(c2ccc(C(C)(C)C)cc2)NC(=O)N1CCCCCC(=O)O (stereo unspecified)	–	inconclusive: 28.2 µM [activator, single point]
CCc1cccc(NC(=O)c2cc3c(=O)n(Cc4ccccc4)ccc3nc2C)c1	–	inconclusive: 25.1 µM [activator, single point]
CC(=O)c1ccc(N2CCN(C(=O)c3cc4c(-c5ccccc5F)nn(C)c4s3)CC2)cc1	–	inconclusive: 22.4 µM [activator, single point]
COC(=O)[C@]1(CNC(=O)C(C)(C)C)CC(=O)N(Cc2ccc(Cl)cc2)[C@@H]1c1ccc(OC)cc1	inactive: 23.8%	–
COc1ccc(N2CC(C(=O)Nc3nnc(SCC(=O)NCC4CCCO4)s3)CC2=O)cc1 (stereo unspecified)	–	inconclusive: 17.8 µM [activator, partial curve, poor fit]
Clc1ccccc1C1=Nn2c(nnc2-c2ccncc2)SC1	inactive: 9.63%	–
O=C1N(CCCO)CCC12CCCCC2	inactive: -19.6%	–
CC[C@@H](CCC(=O)N(c1ccccc1)c1ccccc1)c1ccc(C)cc1	inactive: 20%	–
COc1ccc(-c2nn3c(C4CCCCC4)nnc3s2)cc1OC	–	inconclusive: 50.1 µM [activator, partial curve, poor fit]
O=C(Nc1ccc(N2CCCC2)cc1)c1cccc(-c2cc3ccccc3oc2=O)c1	–	inconclusive: 28.2 µM [activator, single point]
O=C(C(Cc1ccccc1)n1cccc1)N1CCN(c2cccc(Cl)c2)CC1 (stereo unspecified)	–	inconclusive: 35.5 µM [activator, single point]
CCCCC(CC)CNS(=O)(=O)c1ccc2c(c1)CCN2C(=O)CCC(=O)O (stereo unspecified)	–	inconclusive: 28.2 µM [activator, partial curve, poor fit]

Structure (SMILES)	growth rescue (activation)	Potency
CN(C)Cc1c(C(=O)N/N=C/c2ccc(OCc3c(F)cccc3Cl)cc2)nnn1-c1nonc1N	inactive: 39.6%	–
Cc1csc(NC(=O)CSc2nc3sc(C)c(C)c3c(=O)[nH]2)n1	–	inconclusive: 39.8 µM [activator, single point]
CC(C)CC1C(=O)N(Cc2cn(Cc3ccco3)nn2)CCS(=O)(=O)N1Cc1ccc(-c2ccccc2)cc1 (stereo unspecified)	–	inconclusive: 25.1 µM [activator, single point]
CC(=O)COc1cc2c(-c3cc4ccccc4o3)cc(=O)oc2cc1C	inactive: -1.05%	–
Cc1c(NC(=O)CSc2nc3ccccc3[nH]2)c(=O)n(-c2ccccc2)n1C	inactive: 1.5%	–
COc1ccc(CNC(=O)C2CCN(S(=O)(=O)c3c(C)noc3/C=C/c3ccccc3F)CC2)cc1	inactive: -3.17%	–
O=Cc1cn(-c2ccccc2)nc1-c1cc2cc(O)ccc2oc1=O	–	inconclusive: 44.7 µM [activator, partial curve, poor fit]
COc1ccc(Cn2ccc3nc(C)c(C(=O)Nc4ccc(OC)cc4)cc3c2=O)cc1	inactive: 2.25%	–
CC(=O)NC(C)CCc1ccccc1 (stereo unspecified)	–	inconclusive: 44.7 µM [activator, single point]
CC1C=CC=CCCC=CC=CC=CC=CC(OC2O[C@H](C)[C@@H](O)[C@H](N)[C@@H]2O)CC(O)C(C(=O)O)C(O)CC(=O)CC(O)C(O)CCC(O)CC(O)CC(O)CC(=O)OC(C)C(C)C1O (stereo partly specified)	–	inconclusive: 11.2 µM [activator, partial curve, poor fit]
O=C(COC(=O)/C=C/c1ccc(F)cc1)NCc1ccc2c(c1)OCO2	inactive: 9.06%	–
CCCCCCCCN1C(=O)[C@H](CC(=O)NCC2CCCCC2)C[C@@]2(C(=O)OC)CC(C)(C)CC=C12	–	inconclusive: 6.31 µM [activator, partial curve]
C=C(C)c1ccc(C(C)(C)NC(=O)N(Cc2ccccc2)Cc2ccco2)cc1	inactive: 14.7%	–
CCC1Nc2ncnc(N3CCN(c4ccccc4)CC3)c2N(Cc2ccc(Cl)cc2)C1=O (stereo unspecified)	–	inconclusive: 20 µM [activator, single point]
CCc1nc2ccc(C(=O)NCCc3ccccc3OC)cc2nc1CC	–	inconclusive: 31.6 µM [activator, single point]
COc1ccc(-c2ccc(CN3C(CC(C)C)C(=O)N(Cc4cn(CCC5OCCCO5)nn4)CCS3(=O)=O)cc2)cc1OC (stereo unspecified)	–	inconclusive: 22.4 µM [activator, single point]
Cc1ccc(S(=O)(=O)N2CCCCC2)cc1NC(=O)Cc1c[nH]c2ccccc12	–	inconclusive: 6.31 µM [activator, partial curve]
Cc1ccc(NC(=O)CC2SC3=NCCCN3C2=O)c(C)c1 (stereo unspecified)	–	inconclusive: 50.1 µM [activator, single point]
CCCCN1CC(c2nc3ccccc3n2CCCCOc2cc(C)ccc2C)CC1=O (stereo unspecified)	–	inconclusive: 25.1 µM [activator, single point]
N#CCC(=O)Nc1ccc(C(=O)OCC(=O)Nc2sc3c(c2C#N)CCCC3)cc1	–	inconclusive: 3.55 µM [activator, partial curve, poor fit]
